Measurements reported in the supplement of paper PMC9542798.

Legend:
Experiment in all cases: minimum inhibitory concentration
Gentamicin = compound: CNC(C)C1CCC(N)C(OC2C(N)CC(N)C(OC3OCC(C)(O)C(NC)C3O)C2O)O1 [Gentamicin]
Description: (§1)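 Broth microdilution MIC per ISO 10932 on precoated VetMIC Lact-1 plates (tylosin, vancomycin and ampicillin plates prepared manually) against lactic acid bacteria and bifidobacteria isolates. Plates were read visually after 48 h anaerobic incubation (bifidobacteria 72 h; enterococci and staphylococci 24 h aerobic) at species-specific temperatures of 30 or 37 °C. Values prefixed with < or > are outside the tested dilution range.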

Chloramphenicol = compound: O=C(N[C@H](CO)[C@H](O)c1ccc([N+](=O)[O-])cc1)C(Cl)Cl [Chloramphenicol]
Description: as §1

Erythromycin = compound: CC[C@H]1OC(=O)[C@H](C)[C@@H](O[C@H]2C[C@@](C)(OC)[C@@H](O)[C@H](C)O2)[C@H](C)[C@@H](O[C@@H]2O[C@H](C)C[C@H](N(C)C)[C@H]2O)[C@](C)(O)C[C@@H](C)C(=O)[C@H](C)[C@@H](O)[C@]1(C)O [Erythromycin]
Description: as §1

Kanamycin = compound: NC[C@H]1O[C@H](O[C@H]2[C@H](O)[C@@H](O[C@H]3O[C@H](CO)[C@@H](O)[C@H](N)[C@H]3O)[C@H](N)C[C@@H]2N)[C@H](O)[C@@H](O)[C@@H]1O [Kanamycin]
Description: as §1

Clindamycin = compound: CCC[C@@H]1C[C@@H](C(=O)N[C@@H]([C@H]2O[C@H](SC)[C@H](O)[C@@H](O)[C@H]2O)[C@H](C)Cl)N(C)C1 [Clindamycin]
Description: as §1

Ampicillin = compound: CC1(C)S[C@@H]2[C@H](NC(=O)[C@H](N)c3ccccc3)C(=O)N2[C@H]1C(=O)O [Ampicillin]
Description: as §1

Streptomycin = compound: CN[C@@H]1[C@H](O[C@H]2[C@H](O[C@H]3[C@H](O)[C@@H](O)[C@H](N=C(N)N)[C@@H](O)[C@@H]3N=C(N)N)O[C@@H](C)[C@]2(O)C=O)O[C@@H](CO)[C@H](O)[C@H]1O [Streptomycin]
Description: as §1

Neomycin = compound: NC[C@@H]1O[C@H](O[C@H]2[C@@H](O)[C@H](O[C@@H]3[C@@H](O)[C@H](N)C[C@H](N)[C@H]3O[C@H]3O[C@H](CN)[C@@H](O)[C@H](O)[C@H]3N)O[C@@H]2CO)[C@H](N)[C@@H](O)[C@@H]1O [Neomycin]
Description: as §1

Tetracycline = compound: CN(C)[C@@H]1C(O)=C(C(N)=O)C(=O)[C@@]2(O)C(O)=C3C(=O)c4c(O)cccc4[C@@](C)(O)[C@H]3C[C@@H]12 [Tetracycline]
Description: as §1
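Note: isolates derived from commercial starter, protective, probiotic or feed-additive cultures, from fermented products, from human gut mucosa or feces, and from human milk or colostrum.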

Test System	minimum inhibitory concentration (Gentamicin)	minimum inhibitory concentration (Chloramphenicol)	minimum inhibitory concentration (Erythromycin)	minimum inhibitory concentration (Kanamycin)	minimum inhibitory concentration (Clindamycin)	minimum inhibitory concentration (Ampicillin)	minimum inhibitory concentration (Streptomycin)	minimum inhibitory concentration (Neomycin)	minimum inhibitory concentration (Tetracycline)
Lacticaseibacillus paracasei IM657 (strain group: human intestinal mucosa or faeces)	2 µg/mL	8 µg/mL	0.12 µg/mL	32 µg/mL	0.12 µg/mL	1 µg/mL	8 µg/mL	8 µg/mL	1 µg/mL
Lactiplantibacillus plantarum IM1161 (strain group: non-starter strains)	2 µg/mL	4 µg/mL	0.5 µg/mL	8 µg/mL	4 µg/mL	2 µg/mL	32 µg/mL	4 µg/mL	8 µg/mL
Lactiplantibacillus plantarum IM1159 (strain group: non-starter strains)	8 µg/mL	4 µg/mL	0.5 µg/mL	128 µg/mL	4 µg/mL	2 µg/mL	64 µg/mL	8 µg/mL	8 µg/mL
Lacticaseibacillus paracasei IM1118 (strain group: non-starter strains)	4 µg/mL	4 µg/mL	0.12 µg/mL	64 µg/mL	0.25 µg/mL	2 µg/mL	32 µg/mL	4 µg/mL	1 µg/mL
Lactiplantibacillus plantarum IM1350 (strain group: non-starter strains)	8 µg/mL	8 µg/mL	1 µg/mL	32 µg/mL	8 µg/mL	2 µg/mL	32 µg/mL	16 µg/mL	16 µg/mL
Lacticaseibacillus casei IM1098 (strain group: starter cultures)	2 µg/mL	4 µg/mL	0.12 µg/mL	32 µg/mL	0.12 µg/mL	4 µg/mL	16 µg/mL	4 µg/mL	1 µg/mL
Lacticaseibacillus paracasei IM1356 (strain group: non-starter strains)	4 µg/mL	4 µg/mL	0.5 µg/mL	64 µg/mL	0.25 µg/mL	2 µg/mL	32 µg/mL	8 µg/mL	1 µg/mL
Limosilactobacillus fermentum IM851 (strain group: human milk or colostrum)	2 µg/mL	4 µg/mL	0.25 µg/mL	64 µg/mL	0.06 µg/mL	1 µg/mL	32 µg/mL	2 µg/mL	4 µg/mL
Lacticaseibacillus paracasei IM1141 (strain group: non-starter strains)	2 µg/mL	4 µg/mL	0.12 µg/mL	32 µg/mL	0.12 µg/mL	2 µg/mL	16 µg/mL	4 µg/mL	1 µg/mL
Lacticaseibacillus rhamnosus IM1124 (strain group: non-starter strains)	2 µg/mL	8 µg/mL	0.25 µg/mL	64 µg/mL	1 µg/mL	2 µg/mL	2 µg/mL	8 µg/mL	1 µg/mL
Lacticaseibacillus paracasei IM698 (strain group: human intestinal mucosa or faeces)	4 µg/mL	8 µg/mL	0.25 µg/mL	32 µg/mL	0.25 µg/mL	1 µg/mL	16 µg/mL	8 µg/mL	2 µg/mL
Pediococcus acidilactici/pentosaceus/lolli IM719 (strain group: human milk or colostrum)	8 µg/mL	8 µg/mL	0.5 µg/mL	256 µg/mL	0.12 µg/mL	4 µg/mL	64 µg/mL	16 µg/mL	32 µg/mL
Lactiplantibacillus plantarum IM1026 (strain group: non-starter strains)	8 µg/mL	8 µg/mL	0.5 µg/mL	128 µg/mL	2 µg/mL	1 µg/mL	64 µg/mL	8 µg/mL	8 µg/mL
Lactiplantibacillus plantarum IM697 (strain group: human intestinal mucosa or faeces)	4 µg/mL	8 µg/mL	0.5 µg/mL	256 µg/mL	2 µg/mL	0.5 µg/mL	64 µg/mL	8 µg/mL	32 µg/mL
Lactiplantibacillus plantarum IM1152 (strain group: non-starter strains)	8 µg/mL	16 µg/mL	0.5 µg/mL	256 µg/mL	1 µg/mL	1 µg/mL	128 µg/mL	8 µg/mL	8 µg/mL
Lacticaseibacillus rhamnosus IM1072 (strain group: non-starter strains)	4 µg/mL	8 µg/mL	0.5 µg/mL	64 µg/mL	0.5 µg/mL	1 µg/mL	32 µg/mL	4 µg/mL	16 µg/mL
Lactiplantibacillus plantarum IM702 (strain group: human intestinal mucosa or faeces)	8 µg/mL	8 µg/mL	0.5 µg/mL	256 µg/mL	2 µg/mL	0.25 µg/mL	64 µg/mL	8 µg/mL	16 µg/mL
Lactiplantibacillus plantarum IM1158 (strain group: non-starter strains)	8 µg/mL	4 µg/mL	0.5 µg/mL	128 µg/mL	4 µg/mL	2 µg/mL	64 µg/mL	8 µg/mL	8 µg/mL
